For 59 molecules, relative growth results are on record in the supplement of paper PMC9446081.

In all, about 39,000 compounds went through this assay and about 220 (0.56%) showed activity. The list shows a part of the results.
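Note: static incubation at 37 °C against the wild-type strain, values averaged over two biological replicates.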

For the assay, the system named is Escherichia coli K-12 BW25113. The assay is described as follows: relative growth (OD600 normalised to plate interquartile mean) (fraction); higher = less growth inhibition, active = 0.2 or less. As to conditions: 50 µM; LB; incubation time: overnight (16-24 h).
Take `COc1ccc(NC(=O)Nc2ccc3c(c2)C(=O)N([C@H](C)CO)C[C@H](C)[C@H](CN(C)Cc2ccc4c(c2)OCO4)OCCCC[C@H](C)O3)cc1`: the relative growth was inactive: 0.966.

In the case of `C[C@@H]1CN([C@@H](C)CO)C(=O)c2cccc(NC(=O)C3CCCCC3)c2O[C@H]1CN(C)Cc1ccc(Cl)c(Cl)c1`, the relative growth was inactive: 0.963.

Consider `C[C@H]1CN([C@@H](C)CO)C(=O)c2cc(C#CC3CC3)cnc2O[C@H]1CN(C)S(=O)(=O)c1cccc(F)c1`, for which the relative growth was inactive: 0.997.

For `C[C@@H]1CN([C@@H](C)CO)C(=O)Cc2cc(NC(=O)CCC(F)(F)F)ccc2O[C@@H]1CN(C)Cc1ccc(C(F)(F)F)cc1`, the relative growth was inactive: 1.05.

With `CN1CCN([C@H](CNC(=O)C(=O)NC[C@H]2CCCO2)c2ccc(N(C)C)cc2)CC1`, the relative growth is inactive: 0.944.

For the molecule `N[C@H](c1ccc(Cl)cc1)c1cccnc1`, the relative growth was inactive: 1.02.

With `C[C@H]1COC(=O)[C@@H](CC(=O)OC(C)(C)C)CC=CC[C@@H](CC(=O)N[C@@H](CO)Cc2ccccc2)C(=O)N1`, the relative growth was inactive: 0.997.

For `CO[C@@H]1CN(C)C(=O)c2cc(NC(=O)Nc3ccccc3F)ccc2OC[C@H](C)N(CCC(F)(F)F)C[C@@H]1C`, the relative growth is inactive: 0.99.

For `C[C@@H]1CN([C@@H](C)CO)C(=O)c2cc(N(C)C)ccc2O[C@@H](C)CCCCO[C@H]1CN(C)C(=O)Nc1cccc2ccccc12`, the relative growth was inactive: 1.

Take `CC/C=C/C(=O)N(C[C@@H]1CCCO1)[C@@H]1CC(C(=O)NCCO)=C[C@H](Oc2c(I)cc(CO)cc2OC)[C@H]1O`: the relative growth is inactive: 1.

For the molecule `C[C@H]1CN([C@@H](C)CO)C(=O)c2cccc(NS(C)(=O)=O)c2O[C@@H]1CN(C)Cc1ccc(C(F)(F)F)cc1`, the relative growth was inactive: 1.01.

`C[C@@H]1CN([C@@H](C)CO)C(=O)Cc2cc(NS(=O)(=O)c3cn(C)cn3)ccc2O[C@@H]1CN(C)C(=O)NC1CCCCC1`: the relative growth was inactive: 0.939.

For the molecule `COc1ccc(NC(=O)N(C)C[C@@H]2OCCCC[C@H](C)Oc3ccc(NC(=O)Nc4ccc(C(F)(F)F)cc4)cc3C(=O)N([C@@H](C)CO)C[C@H]2C)cc1`, the relative growth was inactive: 0.963.

On to `Cc1ccc(S(=O)(=O)Nc2cccc3c2O[C@H](CN(C)S(C)(=O)=O)[C@H](C)CN([C@H](C)CO)C3=O)cc1`, for which the relative growth was inactive: 1.

As for `CN1CCN(C(=O)C[C@@H]2CC[C@@H]3[C@H](COC[C@H](O)CN3C(=O)Nc3cc(Cl)cc(Cl)c3)O2)CC1`, the relative growth was inactive: 0.968.

In the case of `CN(C)C(=O)C[C@H]1CC[C@@H]2[C@H](COc3ccc(NS(=O)(=O)c4cccc(F)c4)cc3C(=O)N2C)O1`, the relative growth is inactive: 1.01.

For `CCCCCCCCCCCCCCCCCCCC(=O)N[C@H]1CC[C@@]2(C)[C@@H](C1)C[C@@H](O)[C@@H]1[C@@H]2C[C@H](O)[C@]2(C)[C@@H]([C@H](C)CCC(=O)O)CC[C@@H]12`, the relative growth is inactive: 1.02.

In the case of `C[C@@H]1CN([C@@H](C)CO)S(=O)(=O)c2ccc(C#CC(C)(C)O)cc2O[C@@H]1CN(C)C(=O)CN(C)C`, the relative growth was inactive: 0.974.

As to `C[C@H](CO)N1C[C@H](C)[C@H](CN(C)C(=O)Nc2ccccc2)Oc2c(NC(=O)c3ccc(-c4nccs4)cc3)cccc2C1=O`, the relative growth was inactive: 1.

With `Cc1ccc(S(=O)(=O)N(C)C[C@H]2Oc3c(NS(=O)(=O)c4c(C)noc4C)cccc3C(=O)N([C@H](C)CO)C[C@H]2C)cc1`, the relative growth was inactive: 1.03.

As for `C[C@H]1CCCCO[C@H](CN(C)Cc2ccccc2)[C@@H](C)CN([C@@H](C)CO)C(=O)c2cc(NC(=O)c3ccccc3)ccc2O1`, the relative growth is inactive: 1.01.

Regarding `CC(C)C#Cc1ccc2c(c1)O[C@@H](CN(C)S(=O)(=O)c1cn(C)cn1)[C@@H](C)CN([C@@H](C)CO)S2(=O)=O`, the relative growth was inactive: 0.991.

On to `O=C1C[C@]2(c3ccc([N+](=O)[O-])cc3)C(=O)N(C3CC3)c3cc(CO)ccc3[C@H]2N1CC12CC3CC(CC(C3)C1)C2`, for which the relative growth was inactive: 1.01.

As for `CC(C)NC(=O)N(C)C[C@H]1Oc2c(NS(=O)(=O)c3ccc(F)cc3)cccc2C(=O)N([C@@H](C)CO)C[C@@H]1C`, the relative growth was inactive: 0.978.

On to `Cc1ccc(S(=O)(=O)Nc2ccc3c(c2)C(=O)N([C@@H](C)CO)C[C@H](C)[C@@H](CN(C)C(=O)Nc2ccc4c(c2)OCO4)OCCCC[C@H](C)O3)cc1`, for which the relative growth is inactive: 1.02.

With `C[C@@H]1CN([C@@H](C)CO)C(=O)c2cc(NC(=O)Cc3cn(C)c4ccccc34)ccc2O[C@@H]1CN(C)Cc1ccc(C(F)(F)F)cc1`, the relative growth was inactive: 0.978.

Turning to `COc1ccc2[nH]cc(CCNC(C)=O)c2c1`, the relative growth was inactive: 1.04.

For the molecule `COc1ccc(CN(C)C[C@@H]2OCCCC[C@@H](C)Oc3ccc(NC(=O)Nc4cccc5ccccc45)cc3C(=O)N([C@@H](C)CO)C[C@H]2C)cc1`, the relative growth was inactive: 1.02.

`COc1ccc(S(=O)(=O)N(C)C[C@@H]2Oc3ncc(C#CC4(O)CCCC4)cc3C(=O)N([C@@H](C)CO)C[C@@H]2C)cc1`: the relative growth was inactive: 0.957.

Consider `Cc1noc(C)c1NC(=O)N(C)C[C@@H]1OCCCC[C@@H](C)Oc2ccc(NC(=O)Nc3ccccc3)cc2C(=O)N([C@H](C)CO)C[C@@H]1C`, for which the relative growth was inactive: 1.

Take `C[C@H]1CN([C@@H](C)CO)C(=O)Cc2cc(NC(=O)Nc3ccc(C(F)(F)F)cc3)ccc2O[C@H]1CN(C)C(=O)Nc1cccc2ccccc12`: the relative growth was inactive: 0.99.

With `O=C([O-])c1ccccc1O.[Na+]`, the relative growth is inactive: 1.06.

On to `CC1(C)OC2CC(=O)OCC23C1CC(=O)C1(C)C3CCC2(C)C(c3ccoc3)OC(=O)C3OC321` (centres undefined), for which the relative growth was inactive: 0.929.

On to `C[C@H](CO)N1C[C@H](C)[C@@H](CN(C)S(=O)(=O)c2cccs2)Oc2ccc(NS(C)(=O)=O)cc2C1=O`, for which the relative growth is inactive: 0.974.

In the case of `C[C@H](O)[C@H](O)[C@@H](O)[C@@H](O)/C=N/NC(=O)CCCCCC(=O)NO`, the relative growth is inactive: 0.972.

Turning to `CCS(=O)(=O)N1[C@@H](CO)[C@H](c2ccccc2)C12CN(C(=O)CN(C)C)C2`, the relative growth is inactive: 1.

Regarding `C[C@@H]1CN([C@H](C)CO)C(=O)c2cc(NS(=O)(=O)c3cn(C)cn3)ccc2O[C@@H]1CN(C)S(=O)(=O)c1ccc(Cl)cc1`, the relative growth was inactive: 0.984.

In the case of `CCC(C)C1OC2(C=CC1C)CC1CC(CC=C(C)C(OC3CC(OC)C(OC4CC(OC)C(O)C(C)O4)C(C)O3)C(C)C=CC=C3COC4C(OC)C(C)=CC(C(=O)O1)C34O)O2` (centres undefined), the relative growth is inactive: 0.949.

As to `CC(C)N1CC2(CN(Cc3ccc(-c4ccccc4)cc3)C2)Oc2c(NC(=O)c3ccncc3)cccc2C1=O`, the relative growth was inactive: 1.03.

Regarding `COCC(=O)N1C[C@H](C)[C@@H](OC)CN(C)C(=O)c2ccc(NC(=O)c3cc(C)on3)cc2OC[C@@H]1C`, the relative growth is inactive: 1.

Consider `CN1C(=O)c2cc(NC(=O)C3CCC3)ccc2OC[C@@H]2O[C@H](CC(=O)NCCc3ccncc3)CC[C@@H]21`, for which the relative growth is inactive: 0.973.

For `C[C@@H]1CN([C@H](C)CO)C(=O)c2cc(NC(=O)NC3CCCCC3)ccc2O[C@H]1CN(C)Cc1ccc(Cl)c(Cl)c1`, the relative growth is inactive: 1.06.

Consider `COc1ncnc(OC)c1C`, for which the relative growth was inactive: 0.824.

`Cc1noc(C)c1NC(=O)N(C)C[C@H]1OCCCC[C@@H](C)Oc2ccc(NC(=O)Nc3cccc4ccccc34)cc2C(=O)N([C@H](C)CO)C[C@@H]1C`: the relative growth was inactive: 0.976.

Take `COc1ccc2c3c(n(c2c1)C)[C@H](CO)N(C[C@]13CCN(CC1)C(=O)c1cnccn1)C(=O)c1cnccn1`: the relative growth was inactive: 0.996.

In the case of `COCCCNc1ncnc(N)c1[N+](=O)[O-]`, the relative growth was inactive: 1.02.

For `C[C@@H]1CN([C@H](C)CO)C(=O)c2cc(NS(C)(=O)=O)ccc2O[C@@H](C)CCCCO[C@@H]1CN(C)C(=O)c1ccncc1`, the relative growth was inactive: 1.

For the molecule `C[C@@H]1CN([C@@H](C)CO)C(=O)c2cccc(NC(=O)c3ccc(-c4nccs4)cc3)c2O[C@H]1CN(C)C(=O)Nc1ccccc1`, the relative growth was inactive: 0.981.

As to `C[C@@H]1CN([C@H](C)CO)C(=O)Cc2cc(NC(=O)Nc3cccc4ccccc34)ccc2O[C@@H]1CN(C)Cc1ccc(Oc2ccccc2)cc1`, the relative growth is inactive: 1.02.

On to `O=c1[nH]c2ccc(F)cc2nc1O`, for which the relative growth was inactive: 0.99.

As for `CC(C)NC(=O)N(C)C[C@@H]1OCc2cn(nn2)CCCC(=O)N([C@H](C)CO)C[C@H]1C`, the relative growth is inactive: 1.01.

Regarding `C[C@H](CO)N1C[C@H](C)[C@@H](CN(C)C(=O)Nc2cccc3ccccc23)OCCCC[C@H](C)Oc2ccc(NC(=O)Nc3ccccc3)cc2C1=O`, the relative growth was inactive: 1.03.

Consider `C[C@H](CO)N1C[C@H](C)[C@H](CN(C)S(=O)(=O)c2cccs2)Oc2ccc(NC(=O)Cn3cnnn3)cc2CC1=O`, for which the relative growth was inactive: 0.997.

On to `COc1ccc(S(=O)(=O)Nc2ccc3c(c2)CC(=O)N([C@@H](C)CO)C[C@@H](C)[C@@H](CN(C)CC2CC2)O3)cc1`, for which the relative growth is inactive: 0.989.

In the case of `Cc1noc(C)c1NC(=O)N(C)C[C@@H]1Oc2ccc(NC(=O)Nc3cccc4ccccc34)cc2C(=O)N([C@@H](C)CO)C[C@@H]1C`, the relative growth is inactive: 1.03.

For `C[C@H](CO)N1C[C@H](C)[C@@H](CN(C)Cc2ccc(C(=O)O)cc2)Oc2ncc(Br)cc2C1=O`, the relative growth was inactive: 1.01.

Take `CC(C)NC(=O)Nc1ccc2c(c1)CC(=O)N([C@H](C)CO)C[C@H](C)[C@@H](CN(C)S(=O)(=O)c1cccs1)O2`: the relative growth was inactive: 0.999.

For the molecule `COCC#Cc1ccc2c(c1)O[C@H](CN(C)C(=O)c1ccccc1F)[C@@H](C)CN([C@@H](C)CO)S2(=O)=O`, the relative growth is inactive: 1.01.

For the molecule `C[C@@H]1CCCCO[C@@H](CN(C)Cc2ccc(Cl)c(Cl)c2)[C@@H](C)CN([C@@H](C)CO)C(=O)c2cc(NC(=O)Nc3ccc4c(c3)OCO4)ccc2O1`, the relative growth was inactive: 1.01.
